Data: the supplement of paper PMC11417369
This is one part of the list.

System: PF3D7_0420300 AP2 domain 1 (GST-tagged)
Test: gcPBM binding intensity (ln(normalized median fluorescence intensity)); higher = stronger DNA binding
Method in brief: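 DNA-binding domains from P. falciparum, fused to GST and produced in E. coli, were put on an Agilent 4 × 180k double-stranded probe array for 1 h in 1× PBS holding 1% milk, 0.2 mg/ml BSA, 0.5% salmon testes DNA and 0.03% Triton X-100. Probes were primer-extended, 36 bp long and drawn from intergenic genomic regions, with negative controls included. After Alexa488 anti-GST antibody detection and a 488 nm scan, binding intensity was set as the highest Masliner-normalised natural-log median intensity across replicate spots of either probe orientation.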

**Q.** How did the “gcPBM binding intensity (ln)” value turn out when “AAATACTTAACATTGGTGCATATTTGTAAAATTATT [GTGCAC_site9515]” was run?
**A.** 9.22

**Q.** For “TTTTTTTTTTTTTTATGTACTAAAAAATGAAAAATA [XGTACX_site6812]”, which “gcPBM binding intensity (ln)” value is on record?
**A.** 8.58

**Q.** Which “gcPBM binding intensity (ln)” value does the source give for “ATGCAATAATAATATTGTACGCATATATTTTTTACT [XGTACX_site3384]” here?
**A.** 9.28

**Q.** With “AGAATACAAAATTGCACACATATTGTGAAAATGTTA [CACACA_site4005]” as the sequence, how does the “gcPBM binding intensity (ln)” value read?
**A.** 9.48

**Q.** Which “gcPBM binding intensity (ln)” value does the source give for “TTTTGGCTTCTAATATTATACAAAATGGTAAGGAAA [TGCATGCA_negctrl_site169]” here?
**A.** 8.91

**Q.** With TTATTTATTTATTGGGTGCACTTGATTTAAATATGC as the sequence, how does the “gcPBM binding intensity (ln)” value read?
**A.** 9.06

**Q.** For “AAAAAAAAAAAAAAAACACACACATATATATAATAT [CACACA_site9038]”, which “gcPBM binding intensity (ln)” value is on record?
**A.** 9.86

**Q.** For “TTTGTCAAATAATATTGTACTAAAAAATTTTGCCTT [XGTACX_site7485]”, which “gcPBM binding intensity (ln)” value is on record?
**A.** 9.04

**Q.** Which “gcPBM binding intensity (ln)” value does the source give for “TATTTGTAATATAACACACACAAAAAAAGACTCGGA [CACACA_site1681]” here?
**A.** 9.9

**Q.** “ATACACACAGCCTAAACATGCATATAGAAAAAAGAA [TGCATGCA_site1028]” was tested. Which “gcPBM binding intensity (ln)” value did it give?
**A.** 9.59

**Q.** How did the “gcPBM binding intensity (ln)” value turn out when “TGTTTATACATCAGGTGTACGCAAAATAATTGTATG [XGTACX_site206]” was run?
**A.** 9.29

**Q.** For “TTTATTTACTATTAAAGTACTAAATCATATAATTAT [XGTACX_site2580]”, which “gcPBM binding intensity (ln)” value is on record?
**A.** 9.01

**Q.** For “TATACATATACATATACACACACACCCATAAATAAA [CACACA_site8372]”, which “gcPBM binding intensity (ln)” value is on record?
**A.** 9.99

**Q.** “TTAACACATGCTTGGTCACACACGTATGCATATTTA [CACACA_site2127]” was tested. Which “gcPBM binding intensity (ln)” value did it give?
**A.** 9.53

**Q.** Which “gcPBM binding intensity (ln)” value does the source give for “GTGTGATATAATTTTTTTAGAGCTTTATAATATTAT [CACACA_negctrl_site233]” here?
**A.** 9.27

**Q.** “TATGTTGATGATATTACACACCCAATGAGAAAAGGA [CACACA_site7060]” was tested. Which “gcPBM binding intensity (ln)” value did it give?
**A.** 9.5

**Q.** For “CAACCATTTGTAGGTAAACACACATTATTATTAATA [CACACA_site8842]”, which “gcPBM binding intensity (ln)” value is on record?
**A.** 9.34

**Q.** Which “gcPBM binding intensity (ln)” value does the source give for “GTTAAGCAATATATATGTACTTATGGAATAGAAAAA [XGTACX_site3693]” here?
**A.** 9.25

**Q.** “AAGTTACAGAATATCACACATAAATTATCTGTATAT [CACACA_site5116]” was tested. Which “gcPBM binding intensity (ln)” value did it give?
**A.** 9.3

**Q.** “TCAATTAATTATTTTTGTACACAAGAATTACTGAAT [XGTACX_site6401]” was tested. Which “gcPBM binding intensity (ln)” value did it give?
**A.** 8.96

**Q.** For “TTTTTATTAAGACATGCATGGAAACGCACTATTTTA [TGCATGCA_site999]”, which “gcPBM binding intensity (ln)” value is on record?
**A.** 9

**Q.** For “TATATATGCATTAAATGATGTTCCTGTTTTTTAAAA [CACACA_negctrl_site1378]”, which “gcPBM binding intensity (ln)” value is on record?
**A.** 9.18

**Q.** For “ATACGAAGTACGTACACACACTTATATGTTACTAAA [CACACA_site7812]”, which “gcPBM binding intensity (ln)” value is on record?
**A.** 9.51

**Q.** Which “gcPBM binding intensity (ln)” value does the source give for “AATAAATAAATATATACACACATATATGTCTACATA [CACACA_site3158]” here?
**A.** 9.5

**Q.** For “TTTATATCATTTCTTAAAAAAAAGGAGGTAATAGAC [TGCATGCA_negctrl_site555]”, which “gcPBM binding intensity (ln)” value is on record?
**A.** 9.3

**Q.** For “TTGCATTACGAACATACACACAGAATAACTGAAAAC [CACACA_site3025]”, which “gcPBM binding intensity (ln)” value is on record?
**A.** 9.75

**Q.** For “TTCGATGAATATACAAGTACATATCCTTACGAACTG [XGTACX_site1650]”, which “gcPBM binding intensity (ln)” value is on record?
**A.** 8.94

**Q.** Which “gcPBM binding intensity (ln)” value does the source give for “TTAGTTTATTGGTACTGTACTTTTTTTTTCTCCATT [XGTACX_site8618]” here?
**A.** 9.55

**Q.** For “TATCATATATGAAGGTGTACGATTTATTATATAAAT [XGTACX_site7010]”, which “gcPBM binding intensity (ln)” value is on record?
**A.** 9.19

**Q.** Which “gcPBM binding intensity (ln)” value does the source give for “ATTTTTGAACGGTACAGTACAGAATTTAATTAACCC [XGTACX_site47]” here?
**A.** 9.47

**Q.** With “TTATTTAAAATTTTTATGCGTATATATATAGGAACA [CACACA_negctrl_site388]” as the sequence, how does the “gcPBM binding intensity (ln)” value read?
**A.** 9.12

**Q.** “AATTTTTATTTGTACACACATACATATATATTATAT [CACACA_site993]” was tested. Which “gcPBM binding intensity (ln)” value did it give?
**A.** 9.67

**Q.** With “CACAAAATAAATTAAACACACAACATCATAGATGTA [CACACA_site4619]” as the sequence, how does the “gcPBM binding intensity (ln)” value read?
**A.** 9.62

**Q.** Which “gcPBM binding intensity (ln)” value does the source give for “TTTATATATTTCATAATACACACGAAAAAAAAAAAA [CACACA_site2970]” here?
**A.** 9.28

**Q.** For “TGTCATCATCTTAAATGTACAAAAAGGAAATATAAA [XGTACX_site1529]”, which “gcPBM binding intensity (ln)” value is on record?
**A.** 8.96

**Q.** How did the “gcPBM binding intensity (ln)” value turn out when “TTTTTATTTACACTTTTTATTTATATATTATGTACG [CACACA_negctrl_site158]” was run?
**A.** 9.42

**Q.** Which “gcPBM binding intensity (ln)” value does the source give for “ATATAATCAGCTTCTCTTTTATGCTAAAAAAAAAAA [CACACA_negctrl_site1310]” here?
**A.** 8.73

**Q.** “ATAAATAATATAAATACACACTAAAAAAAATATATA [CACACA_site4456]” was tested. Which “gcPBM binding intensity (ln)” value did it give?
**A.** 9.7

**Q.** How did the “gcPBM binding intensity (ln)” value turn out when CGTTGGTATTAAAAGGTGCAATGAAATAATATATTA was run?
**A.** 9.04

**Q.** Which “gcPBM binding intensity (ln)” value does the source give for “AAGATCGCATGAAATGAACACACATAAAAAAAATAT [CACACA_site9353]” here?
**A.** 9.55

**Q.** How did the “gcPBM binding intensity (ln)” value turn out when “AATGTAACAACTTTTTGTACTTAAGAAATAATAAAT [XGTACX_site3310]” was run?
**A.** 9.12

**Q.** “TAAAAAATTATATTCACACACATACCCATATATATA [CACACA_site4458]” was tested. Which “gcPBM binding intensity (ln)” value did it give?
**A.** 9.73

**Q.** How did the “gcPBM binding intensity (ln)” value turn out when “TAAAATTTATAAACTACACACATATATATAGTAATA [CACACA_site3728]” was run?
**A.** 9.5

**Q.** “TAATTTAGATATATAAAGAATTAAAGTTAACATTCT [CACACA_negctrl_site726]” was tested. Which “gcPBM binding intensity (ln)” value did it give?
**A.** 8.96

**Q.** How did the “gcPBM binding intensity (ln)” value turn out when “TTTTTCAGATCCTATATAGTATCATATAAATTCCAT [CACACA_negctrl_site56]” was run?
**A.** 9.07

**Q.** How did the “gcPBM binding intensity (ln)” value turn out when “TTAAGAAAAAAAAAAAGTACACACATATAATATATA [XGTACX_site6268]” was run?
**A.** 9.72

**Q.** With “ATATGACTGTTCATTTGTACGTATAATTATATACGT [XGTACX_site3372]” as the sequence, how does the “gcPBM binding intensity (ln)” value read?
**A.** 9.33

**Q.** For “AAATAATATATTCTATATAATAAATTATAAATATAA [GTGCAC_negctrl_site558]”, which “gcPBM binding intensity (ln)” value is on record?
**A.** 8.92

**Q.** “ATATATATATATATATATATATATATATATTATATA [XGTACX_negctrl_site48]” was tested. Which “gcPBM binding intensity (ln)” value did it give?
**A.** 8.89

**Q.** Which “gcPBM binding intensity (ln)” value does the source give for “ATACAACTAATAAGTAGTACAATATACATATATTAT [XGTACX_site7086]” here?
**A.** 9.33

**Q.** With “TTTTTTTTTTTTTTTTATTTATATATATATATATAT [CACACA_negctrl_site582]” as the sequence, how does the “gcPBM binding intensity (ln)” value read?
**A.** 9.1

**Q.** For “AAAAAAAATGAAAGGTGTACACATACAAACATAGAA [XGTACX_site3517]”, which “gcPBM binding intensity (ln)” value is on record?
**A.** 9.94

**Q.** With “AAATATTTTTAGAGTGCATGTAATAAAAATATAATG [TGCATGCA_site19]” as the sequence, how does the “gcPBM binding intensity (ln)” value read?
**A.** 9.26

**Q.** With “GTGCAAAATATTTTTACACACAAATTTTTACAACAG [CACACA_site3357]” as the sequence, how does the “gcPBM binding intensity (ln)” value read?
**A.** 9.43

**Q.** Which “gcPBM binding intensity (ln)” value does the source give for “AAAAATAAATAAGACACACACAAAAAAAAAAAAAAA [CACACA_site1432]” here?
**A.** 9.54

**Q.** For “AAATGAGATATAAAATGTACATATTGTAAGTAAACA [XGTACX_site1237]”, which “gcPBM binding intensity (ln)” value is on record?
**A.** 9.33
